# Laboratory results from the antibiotic and cytotoxicity screens of Wong et al. (2023).
# Some of the results follow.
# What was measured:
# HSkMC = human skeletal muscle cells; assay: cytotoxicity call (relative viability < 0.9); settings: 10 µM
# HepG2 = assay: cytotoxicity call (relative viability < 0.9); settings: 10 µM
# S. aureus RN4220 = assay: growth inhibition call (relative growth <= 0.2); settings: 50 µM
SMILES,cytotoxicity call (HSkMC),cytotoxicity call (HepG2),growth inhibition call (S. aureus RN4220)
C=c1ccc(C)c2c1=C(O)C(=O)N2,inactive,inactive,inactive
O=C1CCNC(=O)N1,inactive,inactive,inactive
CC(C)(C)S(=O)N1Cc2cc(C(=O)NCc3ccc(Oc4ccccc4)cc3)nc(-c3cccc(-c4cccc(F)c4)c3)c2[C@@H]1CCO (stereo not given in full),inactive,active,inactive
NCCCn1ccnc1,inactive,inactive,inactive
CC(C)NC(=O)Nc1ccc2c(c1)C(=O)N([C@@H](C)CO)C[C@H](C)[C@@H](CN(C)Cc1ccc3c(c1)OCO3)O2,inactive,inactive,inactive
COc1ccc(C#Cc2ccc3c(c2)[C@@]2(C(=O)N3C(=O)N[C@@H](C)c3ccccc3)[C@H](c3ccc(OCCO)cc3)N3[C@H](c4ccccc4)[C@H](c4ccccc4)OC(=O)[C@H]3[C@@H]2C(=O)O)cc1,active,active,inactive
Cc1noc(C)c1NC(=O)N(C)C[C@H]1Oc2c(NC(=O)c3ccncc3)cccc2C(=O)N([C@@H](C)CO)C[C@@H]1C,inactive,inactive,inactive
COc1cccc(S(=O)(=O)Nc2ccc3c(c2)[C@@H]2C[C@H](CC(=O)NCc4ccccc4F)O[C@@H](CO)[C@@H]2O3)c1,inactive,inactive,inactive
C[C@@H]1CCCCO[C@H](CN(C)Cc2ccc(Cl)c(Cl)c2)[C@@H](C)CN([C@H](C)CO)C(=O)c2cc(NC(=O)C3CCCCC3)ccc2O1,inactive,inactive,inactive
C[C@H](CO)N1C[C@H](C)[C@H](CN(C)S(C)(=O)=O)Oc2cc(C#Cc3ccccc3)ccc2S1(=O)=O,inactive,inactive,inactive
C[C@@H]1CCCCO[C@@H](CN(C)C(=O)Cc2ccccc2)[C@H](C)CN([C@@H](C)CO)C(=O)c2cc(NC(=O)C3CCCCC3)ccc2O1,inactive,inactive,inactive
C[C@H]1CN([C@@H](C)CO)C(=O)Cc2cc(NS(C)(=O)=O)ccc2O[C@H]1CN(C)C(=O)NC1CCCCC1,inactive,inactive,inactive
C[C@@H]1CCCCO[C@H](CN(C)C(=O)c2ccccc2)[C@H](C)CN([C@@H](C)CO)C(=O)c2cc(NC(=O)c3ccccc3)ccc2O1,inactive,inactive,inactive
Cc1noc(C)c1S(=O)(=O)N(C)C[C@H]1Oc2c(NC(=O)C3CC3)cccc2C(=O)N([C@@H](C)CO)C[C@H]1C,inactive,inactive,inactive
O=C(C[C@H]1C[C@H]2c3cc(NC(=O)c4ccc5c(c4)OCO5)ccc3O[C@H]2[C@@H](CO)O1)NCc1ccccn1,inactive,inactive,inactive
C[C@@H]1CCCCO[C@@H](CN(C)Cc2ccccc2)[C@H](C)CN([C@H](C)CO)C(=O)c2cc(NS(=O)(=O)c3ccc(F)cc3)ccc2O1,inactive,inactive,inactive
Cc1ccc(S(=O)(=O)N(C)C[C@H]2Oc3cc(Br)ccc3S(=O)(=O)N([C@H](C)CO)C[C@@H]2C)cc1,inactive,inactive,inactive
COc1cccc(-c2cnc3c(c2)C(=O)N([C@H](C)CO)C[C@H](C)[C@H](CN(C)S(=O)(=O)c2ccc(C#N)cc2)O3)c1,inactive,inactive,inactive
CC(=O)NS(=O)(=O)c1ccc(NC(=O)c2ccccc2C(=O)O)cc1,inactive,inactive,inactive
C[C@@H]1CCCCO[C@H](CN(C)C(=O)Nc2ccccc2)[C@@H](C)CN([C@H](C)CO)C(=O)c2cc(NC(=O)Cc3ccccc3)ccc2O1,inactive,inactive,inactive
CC(C)c1onc(-c2c(Cl)cccc2Cl)c1COc1ccc(/C=C/c2cccc(C(=O)O)c2)c(Cl)c1,inactive,inactive,active
C[C@@H]1CCCCO[C@@H](CN(C)S(=O)(=O)c2ccccc2)[C@H](C)CN([C@@H](C)CO)C(=O)c2cc(NC(=O)Nc3cccc4ccccc34)ccc2O1,inactive,inactive,inactive
CC(C)NC(=O)[C@H]1CC[C@@H](n2c(NC(=O)c3ccc(F)cc3)nc3ccc(CN4CCC(C(C)(C)O)CC4)cc32)CC1,inactive,active,inactive
C[n+]1cccc(C(=O)[O-])c1,inactive,inactive,inactive
O=C(/C=C/c1ccc(CNc2ccc([C@H]3O[C@@H](CSc4ccncc4)C[C@H](c4ccccc4)O3)cc2)cc1)NO,active,active,inactive
CO[C@H]1CN(C)C(=O)c2cc(NC(=O)CC(F)(F)F)ccc2OC[C@H](C)N(C(=O)C2CCOCC2)C[C@H]1C,inactive,inactive,inactive
NS(=O)(=O)c1cc2c(cc1Cl)N=CNS2(=O)=O,inactive,inactive,inactive
C[C@H](CO)N1C[C@H](C)[C@@H](CN(C)C(=O)Nc2cccc3ccccc23)Oc2ccc(NC(=O)CCC(F)(F)F)cc2C1=O,inactive,inactive,inactive

SMILES,cytotoxicity call (HSkMC),cytotoxicity call (HepG2),growth inhibition call (S. aureus RN4220)
COCCNC(=O)C[C@H]1CC[C@@H]2[C@H](COc3ccc(NC(=O)Nc4cccc(F)c4)cc3C(=O)N2C)O1,inactive,inactive,inactive
CC(C)(O)C#Cc1ccc([C@H]2[C@H]3CN(S(C)(=O)=O)CCCCN3[C@H]2CO)cc1,inactive,inactive,inactive
C[C@@H]1CN([C@H](C)CO)C(=O)c2cc(N(C)C)ccc2O[C@@H](C)CCCCO[C@H]1CN(C)C(=O)Nc1ccc(C(F)(F)F)cc1,inactive,inactive,inactive
COc1ccc(NC(=O)N(C)C[C@@H]2Oc3ccc(NC(=O)C4CC4)cc3C(=O)N([C@H](C)CO)C[C@H]2C)cc1,inactive,inactive,inactive
COc1ccc(S(=O)(=O)N(C)C[C@H]2OCCCC[C@@H](C)Oc3ccc(NC(=O)Nc4cccc5ccccc45)cc3C(=O)N([C@@H](C)CO)C[C@@H]2C)cc1,inactive,inactive,inactive
C[C@@H]1CN([C@H](C)CO)C(=O)c2cccc(NC(=O)C3CCOCC3)c2O[C@H]1CN(C)Cc1ccc(-c2ccccc2)cc1,inactive,inactive,inactive
C[C@@H](O)[C@H]1C(=O)N2C(C(=O)O)=C(SCCNC=N)C[C@H]12,inactive,inactive,inactive
CC(C)NC(=O)Nc1ccc2c(c1)CC(=O)N([C@@H](C)CO)C[C@@H](C)[C@@H](CN(C)Cc1ccc(Oc3ccccc3)cc1)O2,inactive,inactive,inactive
C[C@@H]1CCCCO[C@H](CN(C)S(=O)(=O)c2ccc(Cl)cc2)[C@@H](C)CN([C@@H](C)CO)C(=O)c2cc(NS(=O)(=O)c3ccccc3)ccc2O1,inactive,inactive,inactive
C[C@H]1CN([C@@H](C)CO)C(=O)c2cc(NS(=O)(=O)c3ccccc3)ccc2O[C@H]1CN(C)CC1CC1,inactive,inactive,inactive
C[C@H](CO)N1C[C@H](C)[C@H](CN(C)S(=O)(=O)c2cccs2)OCCCC[C@H](C)Oc2ccc(NC(=O)CCC(F)(F)F)cc2C1=O,inactive,inactive,inactive
COc1ccc(NC(=O)N(C)C[C@H]2OCCCC[C@H](C)Oc3ccc(NC(=O)Nc4cccc5ccccc45)cc3C(=O)N([C@H](C)CO)C[C@@H]2C)cc1,inactive,inactive,inactive
C[C@H]1CCCCO[C@H](CN(C)C(=O)NC2CCCCC2)[C@@H](C)CN([C@@H](C)CO)C(=O)c2cc(NC(=O)c3ccccc3)ccc2O1,inactive,inactive,inactive
COc1cccc(S(=O)(=O)N(C)C[C@@H]2Oc3ncc(Br)cc3C(=O)N([C@H](C)CO)C[C@@H]2C)c1,inactive,inactive,inactive
CN1C(=O)c2cc(NC(=O)c3cnccn3)ccc2OC[C@@H]2O[C@@H](CC(=O)N[C@@H]3CCN(Cc4ccccc4)C3)CC[C@H]21,inactive,inactive,inactive
CO[C@H]1CN(C)C(=O)c2ccc(NC(=O)c3ccccc3)cc2OC[C@@H](C)N(C(=O)CN(C)C)C[C@@H]1C,inactive,inactive,inactive
C[C@H](CO)N1C[C@H](C)[C@@H](CN(C)Cc2ccc3c(c2)OCO3)Oc2ccc(NC(=O)Nc3ccc(C(F)(F)F)cc3)cc2C1=O,active,active,inactive
C[C@H](CO)N1C[C@H](C)[C@@H](CN(C)Cc2ccc(Oc3ccccc3)cc2)Oc2ccc(NC(=O)Cn3cnnn3)cc2C1=O,inactive,inactive,inactive
C[C@@H]1CCCCO[C@H](CN(C)C(=O)Cc2ccccc2)[C@H](C)CN([C@@H](C)CO)C(=O)c2cc(NC(=O)CCC(F)(F)F)ccc2O1,inactive,inactive,inactive
CC1=CC[C@H](C(C)(C)O)CC1,inactive,inactive,inactive
C[C@@H]1CN([C@@H](C)CO)C(=O)c2cc(NC(=O)Cn3cnnn3)ccc2O[C@H]1CN(C)C(=O)Nc1ccc(C(F)(F)F)cc1,inactive,inactive,inactive
C[C@H]1CN([C@@H](C)CO)C(=O)CCCn2cc(nn2)CO[C@@H]1CN(C)Cc1ccc(C(=O)Nc2ccccc2N)cc1,inactive,inactive,inactive
C[C@@H]1CN([C@@H](C)CO)C(=O)c2cc(-c3ccc(C(=O)N(C)C)cc3)cnc2O[C@H]1CN(C)C(=O)C1CC1,inactive,inactive,inactive
C[C@H](CO)N1C[C@H](C)[C@H](CN(C)S(=O)(=O)c2ccc(Oc3ccccc3)nc2)OCc2cnnn2CCCC1=O,inactive,inactive,inactive
COc1cc(C=CC(=O)N2CCC=CC2=O)cc(OC)c1OC,active,active,inactive
Cc1ccc(S(=O)(=O)N(C)C[C@H]2Oc3ccc(NC(=O)CCCN(C)C)cc3C(=O)N([C@@H](C)CO)C[C@H]2C)cc1,inactive,inactive,inactive
COc1ccc(S(=O)(=O)N(C)C[C@H]2OCCCC[C@@H](C)Oc3ccc(NC(=O)Nc4ccc(C(F)(F)F)cc4)cc3C(=O)N([C@H](C)CO)C[C@H]2C)cc1,inactive,active,inactive
